The values below come from the supplement of paper PMC3334620.

The full ranking holds about 33,000 sequences; the median of “E-score (-0.5 to 0.5)” is about -0.021, and the highest 2% start at about 0.32. Some of the results follow.

The target in this test is T1, Zap1 (UniProt P47043).
T1 sequence: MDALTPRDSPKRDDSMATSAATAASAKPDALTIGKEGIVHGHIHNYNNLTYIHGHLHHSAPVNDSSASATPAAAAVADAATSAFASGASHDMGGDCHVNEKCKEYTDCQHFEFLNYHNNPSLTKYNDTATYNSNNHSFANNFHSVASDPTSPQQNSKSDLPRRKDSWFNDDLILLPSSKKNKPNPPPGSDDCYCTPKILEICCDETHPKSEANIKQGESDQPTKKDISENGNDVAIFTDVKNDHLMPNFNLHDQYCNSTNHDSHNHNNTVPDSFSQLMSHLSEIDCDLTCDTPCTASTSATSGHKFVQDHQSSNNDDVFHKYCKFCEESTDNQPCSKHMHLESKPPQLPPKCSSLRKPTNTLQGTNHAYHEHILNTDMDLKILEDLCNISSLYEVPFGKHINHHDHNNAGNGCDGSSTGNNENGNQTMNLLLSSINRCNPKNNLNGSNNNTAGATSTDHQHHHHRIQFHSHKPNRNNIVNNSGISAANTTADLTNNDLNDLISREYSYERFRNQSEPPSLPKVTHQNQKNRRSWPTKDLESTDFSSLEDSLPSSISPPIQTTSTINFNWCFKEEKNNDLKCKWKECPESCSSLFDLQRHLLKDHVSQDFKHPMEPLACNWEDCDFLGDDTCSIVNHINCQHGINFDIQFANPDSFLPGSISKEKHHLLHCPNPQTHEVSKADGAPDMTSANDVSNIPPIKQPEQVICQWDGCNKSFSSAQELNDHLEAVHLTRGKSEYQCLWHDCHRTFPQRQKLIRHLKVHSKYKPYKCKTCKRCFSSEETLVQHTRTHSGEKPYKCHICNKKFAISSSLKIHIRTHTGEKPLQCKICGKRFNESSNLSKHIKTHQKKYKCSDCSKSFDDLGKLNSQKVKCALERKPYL
In words: PBM E-score (8-mer binding enrichment) (E-score (-0.5 to 0.5)); higher = stronger / more preferred TF binding; most listed sequences are background and not binding sites. The conditions noted are these: protein concentration: 200 nM; construct: GST-full length. An outline of the steps: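 GST-tagged yeast TFs (full-length or DNA-binding domain) were made by PURExpress in vitro transcription/translation and applied at about 100-200 nM to universal all-10-mer Agilent arrays. The arrays were made double-stranded by primer extension, on fresh or once-stripped slides. Bound protein was detected with fluorescent anti-GST, and scans were normalised with masliner. Each ungapped eight-base word, pooled with its reverse complement, received an E-score (modified Wilcoxon-Mann-Whitney statistic) from the Universal PBM Analysis Suite.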
In the case of CTATTAAC, the “PBM E-score” value was 0.217.

In the case of TGGGAGAA, the “PBM E-score” value was -0.157.

Take ATCAGCCG: the “PBM E-score” value is -0.144.

For ACATCCGC, the “PBM E-score” value was -0.0826.

As to ACAGGAGA, the “PBM E-score” value was -0.00479.

Consider ACAGGATG, for which the “PBM E-score” value was found to be 0.0755.

On to CATCCGAC, for which the “PBM E-score” value came out at 0.0183.

Consider ACTCCCAG, for which the “PBM E-score” value was -0.0908.

Consider ACAGATGT, for which the “PBM E-score” value is -0.266.

On to GCGCGCGA, for which the “PBM E-score” value turned out to be 0.017.

ACTTGGAG: the “PBM E-score” value is -0.226.

Consider AGTCGACT, for which the “PBM E-score” value worked out at 0.119.

ACTATGGC: the “PBM E-score” value is -0.0314.

On to AGGTTTGC, for which the “PBM E-score” value worked out at 0.109.

With GGTGCGCA, the “PBM E-score” value was 0.0404.

With AGTGTGGA, the “PBM E-score” value was determined as 0.00926.

On to ATTCGACG, for which the “PBM E-score” value was determined as 0.0764.

ATACCCAC: the “PBM E-score” value was 0.224.

Regarding TATTCAAA, the “PBM E-score” value amounted to 0.235.

For GACGAAAC, the “PBM E-score” value was -0.104.

As to ACATTCCC, the “PBM E-score” value is -0.0945.

In the case of CTCATCAG, the “PBM E-score” value was 0.116.

As for GCTTCACC, the “PBM E-score” value was -0.263.

CAGCGTGA: the “PBM E-score” value is -0.023.

As to AGGACCGA, the “PBM E-score” value was -0.116.

AGGATTTA: the “PBM E-score” value is -0.0767.

Take ATGTTTAG: the “PBM E-score” value came to 0.0793.

For TCTCCCAA, the “PBM E-score” value is -0.00482.

Turning to AGTGTCAT, the “PBM E-score” value is -0.109.

Take AAGATAAA: the “PBM E-score” value was determined as 0.176.

Regarding ACGCGAGG, the “PBM E-score” value was -0.0471.

Turning to AAGCGGTA, the “PBM E-score” value turned out to be 0.131.

Consider CCTCTATC, for which the “PBM E-score” value was 0.0148.

Turning to ATCTTGTG, the “PBM E-score” value was -0.0123.

AAGGAAGT: the “PBM E-score” value is -0.0403.

For CATAACCG, the “PBM E-score” value was found to be 0.395.

As for CCCCGGCC, the “PBM E-score” value was determined as 0.0756.

On to ATCCTCAG, for which the “PBM E-score” value turned out to be 0.0333.

Turning to CGCCTCGA, the “PBM E-score” value worked out at 0.0277.

As to AACAAAGC, the “PBM E-score” value was 0.265.

Consider CCCCTACA, for which the “PBM E-score” value was -0.0402.

With ACGCAAAA, the “PBM E-score” value is -0.024.

Consider AGTTTCAT, for which the “PBM E-score” value is 0.173.

With GCAGCATA, the “PBM E-score” value was -0.183.

As for TACATTCA, the “PBM E-score” value was found to be 0.00564.

As for CCACCGCA, the “PBM E-score” value was -0.0132.

TACAGACA: the “PBM E-score” value was found to be 0.064.

In the case of TGACGACA, the “PBM E-score” value amounted to 0.179.

As for CCCGCGCA, the “PBM E-score” value is 0.012.

Consider CCTTCCGA, for which the “PBM E-score” value is -0.0228.

For GGTTTTAC, the “PBM E-score” value stood at 0.108.

As to AACGGTAG, the “PBM E-score” value came to 0.104.

Consider GCACTGGC, for which the “PBM E-score” value was -0.308.

As to ATGCTTAC, the “PBM E-score” value is -0.056.

Consider CTTCGAAG, for which the “PBM E-score” value is -0.0416.

For the sequence GATCGTGC, the “PBM E-score” value turned out to be 0.0153.

Regarding CACCAGAC, the “PBM E-score” value turned out to be 0.0613.

GAAAAGCA: the “PBM E-score” value is -0.0572.

As to CCGCCGCC, the “PBM E-score” value is -0.0211.

For GCAAGCAA, the “PBM E-score” value is -0.0664.

Consider AATTGGAG, for which the “PBM E-score” value was -0.209.

As to CAAATTTA, the “PBM E-score” value came out at 0.133.

For the sequence CATGCGAC, the “PBM E-score” value was 0.014.

On to GAGCACAA, for which the “PBM E-score” value is -0.0419.

With ACTCGTCC, the “PBM E-score” value was -0.194.

For the sequence CGCGCGGC, the “PBM E-score” value turned out to be 0.0968.

With CAAAAAGC, the “PBM E-score” value turned out to be 0.0524.

For ATCTTAAC, the “PBM E-score” value was determined as 0.142.

ATTGTCCA: the “PBM E-score” value turned out to be 0.166.

Take AGGTTTAG: the “PBM E-score” value is -0.0455.

For AACAATTC, the “PBM E-score” value was -0.109.

With TATCCCGA, the “PBM E-score” value was -0.0721.

On to CAGGTCTC, for which the “PBM E-score” value is -0.00381.

Regarding CTATTAAA, the “PBM E-score” value came to 0.0946.

As for AATTAGTG, the “PBM E-score” value is 0.161.

As to CCTGGCAC, the “PBM E-score” value is -0.197.

Consider GAATCCCA, for which the “PBM E-score” value was -0.0505.

Consider TCGTTCAA, for which the “PBM E-score” value turned out to be 0.164.

For AGTATAAC, the “PBM E-score” value amounted to 0.22.

In the case of CGGAGTCA, the “PBM E-score” value was -0.108.

With CAGGGCCG, the “PBM E-score” value was -0.0379.

As to ATTGCTGC, the “PBM E-score” value is -0.105.

Regarding CAACCCTC, the “PBM E-score” value was determined as 0.258.

Consider CCCGGCTA, for which the “PBM E-score” value was -0.252.

For the sequence GGTTAACA, the “PBM E-score” value came to 0.32.

Turning to ACCTTAGA, the “PBM E-score” value was determined as 0.221.
